Results are given in words; binding and its absence hold for the method and conditions named. In cells and extracts the contact can be indirect. Some results given as binding are weak or reduced against the parent protein; the word gives no strength. For some of these results: Sequences can lack the tags named with a protein.

The chains behind the UniProt entries cited, without tags or fusion partners.
UniProt Q8IZH2: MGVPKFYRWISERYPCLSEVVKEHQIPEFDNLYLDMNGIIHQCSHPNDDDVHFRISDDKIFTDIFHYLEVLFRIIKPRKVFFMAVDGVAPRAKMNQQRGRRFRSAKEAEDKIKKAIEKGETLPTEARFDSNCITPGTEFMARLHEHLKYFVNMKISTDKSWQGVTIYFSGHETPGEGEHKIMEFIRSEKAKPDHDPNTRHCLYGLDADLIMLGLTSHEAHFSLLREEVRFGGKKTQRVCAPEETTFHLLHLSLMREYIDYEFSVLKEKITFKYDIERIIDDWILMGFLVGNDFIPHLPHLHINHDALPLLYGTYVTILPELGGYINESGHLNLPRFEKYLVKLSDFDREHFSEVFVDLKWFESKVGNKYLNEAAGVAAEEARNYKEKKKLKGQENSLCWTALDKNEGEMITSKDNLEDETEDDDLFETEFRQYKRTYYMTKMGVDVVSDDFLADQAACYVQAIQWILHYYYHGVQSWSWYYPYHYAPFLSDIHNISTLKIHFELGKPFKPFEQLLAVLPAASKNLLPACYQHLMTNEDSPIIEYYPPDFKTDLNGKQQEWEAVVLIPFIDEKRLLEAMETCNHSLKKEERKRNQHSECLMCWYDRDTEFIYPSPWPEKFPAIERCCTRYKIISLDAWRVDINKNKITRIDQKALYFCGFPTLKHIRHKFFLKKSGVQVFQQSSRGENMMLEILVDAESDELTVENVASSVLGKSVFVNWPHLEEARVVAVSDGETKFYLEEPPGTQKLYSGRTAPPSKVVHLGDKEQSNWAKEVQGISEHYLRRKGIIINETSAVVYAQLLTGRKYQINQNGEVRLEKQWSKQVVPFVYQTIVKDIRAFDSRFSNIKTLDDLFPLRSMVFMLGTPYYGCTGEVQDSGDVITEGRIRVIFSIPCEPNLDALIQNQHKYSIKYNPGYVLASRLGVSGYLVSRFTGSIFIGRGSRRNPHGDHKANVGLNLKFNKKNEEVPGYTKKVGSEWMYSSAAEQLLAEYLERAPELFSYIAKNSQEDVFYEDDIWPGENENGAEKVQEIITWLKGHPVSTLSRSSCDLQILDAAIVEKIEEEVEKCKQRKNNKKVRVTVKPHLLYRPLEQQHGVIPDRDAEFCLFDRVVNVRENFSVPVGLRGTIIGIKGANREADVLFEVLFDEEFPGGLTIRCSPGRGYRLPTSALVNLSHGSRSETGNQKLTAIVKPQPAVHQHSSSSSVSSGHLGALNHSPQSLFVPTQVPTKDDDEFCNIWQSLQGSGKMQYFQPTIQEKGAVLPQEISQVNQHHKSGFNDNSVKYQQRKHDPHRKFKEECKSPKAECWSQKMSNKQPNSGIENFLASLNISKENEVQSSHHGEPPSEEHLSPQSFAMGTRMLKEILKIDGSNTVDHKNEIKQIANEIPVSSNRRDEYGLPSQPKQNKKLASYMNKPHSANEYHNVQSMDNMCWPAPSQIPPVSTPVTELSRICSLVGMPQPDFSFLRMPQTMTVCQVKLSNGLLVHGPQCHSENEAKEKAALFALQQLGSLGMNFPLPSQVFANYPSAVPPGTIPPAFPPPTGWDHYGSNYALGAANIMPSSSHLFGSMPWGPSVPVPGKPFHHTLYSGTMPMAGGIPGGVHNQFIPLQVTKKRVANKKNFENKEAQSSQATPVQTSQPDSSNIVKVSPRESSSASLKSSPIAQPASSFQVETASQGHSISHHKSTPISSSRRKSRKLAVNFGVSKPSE

Holding throughout (assay): co-IP; GFP-tagged and HA-tagged proteins co-expressed in HEK293T cells, immunoprecipitated with anti-GFP antibodies, western blot; NET buffer; RNase A added
Experiment [1] addresses T1, PatL1 M+C fragment (residues 399-770) (human) (UniProt Q86TB9).
T1 sequence: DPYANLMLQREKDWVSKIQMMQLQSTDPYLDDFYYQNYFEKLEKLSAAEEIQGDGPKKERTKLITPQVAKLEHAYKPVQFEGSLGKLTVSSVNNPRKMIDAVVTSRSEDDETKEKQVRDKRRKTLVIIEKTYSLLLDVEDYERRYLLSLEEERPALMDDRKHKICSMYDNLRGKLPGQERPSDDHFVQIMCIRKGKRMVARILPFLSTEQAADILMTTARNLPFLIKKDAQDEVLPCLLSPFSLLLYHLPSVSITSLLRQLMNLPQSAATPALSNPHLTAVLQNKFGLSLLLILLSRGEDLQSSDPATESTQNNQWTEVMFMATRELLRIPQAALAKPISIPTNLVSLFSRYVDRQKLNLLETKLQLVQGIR

For experiment [2], the target named is T2, GFP-PatL1 ΔC (lacks residues 517-770) (human) (UniProt Q86TB9).
T2 sequence: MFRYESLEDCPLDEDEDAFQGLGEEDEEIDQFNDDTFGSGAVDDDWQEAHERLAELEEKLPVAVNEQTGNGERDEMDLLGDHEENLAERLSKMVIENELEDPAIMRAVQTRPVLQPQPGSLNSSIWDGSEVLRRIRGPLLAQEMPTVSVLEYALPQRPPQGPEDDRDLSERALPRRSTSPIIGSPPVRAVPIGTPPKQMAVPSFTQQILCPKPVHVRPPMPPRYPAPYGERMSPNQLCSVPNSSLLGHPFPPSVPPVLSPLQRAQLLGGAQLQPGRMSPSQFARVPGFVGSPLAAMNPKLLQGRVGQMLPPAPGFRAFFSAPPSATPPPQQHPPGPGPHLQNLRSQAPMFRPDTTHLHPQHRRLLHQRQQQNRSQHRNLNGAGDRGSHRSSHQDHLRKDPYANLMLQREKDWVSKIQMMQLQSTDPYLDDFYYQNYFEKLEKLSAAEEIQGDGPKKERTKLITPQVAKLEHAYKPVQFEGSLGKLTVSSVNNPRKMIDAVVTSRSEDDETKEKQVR

In experiment [3] the target is T3, PatL1 N+P fragment (residues 1-398) (human) (UniProt Q86TB9).
T3 sequence: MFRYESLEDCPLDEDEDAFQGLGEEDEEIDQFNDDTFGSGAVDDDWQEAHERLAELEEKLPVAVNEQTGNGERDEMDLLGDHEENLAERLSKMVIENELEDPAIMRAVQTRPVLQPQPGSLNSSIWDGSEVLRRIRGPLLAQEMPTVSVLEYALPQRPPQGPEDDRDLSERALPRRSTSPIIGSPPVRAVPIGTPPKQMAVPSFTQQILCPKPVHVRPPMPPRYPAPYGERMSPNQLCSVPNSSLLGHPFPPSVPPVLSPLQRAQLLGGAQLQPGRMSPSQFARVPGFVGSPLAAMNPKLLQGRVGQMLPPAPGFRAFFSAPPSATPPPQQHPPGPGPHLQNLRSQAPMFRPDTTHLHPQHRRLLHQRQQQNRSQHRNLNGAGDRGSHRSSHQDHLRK

The target of experiment [4] is T4, GFP-PatL1 (full length) (human) (UniProt Q86TB9).
T4 sequence: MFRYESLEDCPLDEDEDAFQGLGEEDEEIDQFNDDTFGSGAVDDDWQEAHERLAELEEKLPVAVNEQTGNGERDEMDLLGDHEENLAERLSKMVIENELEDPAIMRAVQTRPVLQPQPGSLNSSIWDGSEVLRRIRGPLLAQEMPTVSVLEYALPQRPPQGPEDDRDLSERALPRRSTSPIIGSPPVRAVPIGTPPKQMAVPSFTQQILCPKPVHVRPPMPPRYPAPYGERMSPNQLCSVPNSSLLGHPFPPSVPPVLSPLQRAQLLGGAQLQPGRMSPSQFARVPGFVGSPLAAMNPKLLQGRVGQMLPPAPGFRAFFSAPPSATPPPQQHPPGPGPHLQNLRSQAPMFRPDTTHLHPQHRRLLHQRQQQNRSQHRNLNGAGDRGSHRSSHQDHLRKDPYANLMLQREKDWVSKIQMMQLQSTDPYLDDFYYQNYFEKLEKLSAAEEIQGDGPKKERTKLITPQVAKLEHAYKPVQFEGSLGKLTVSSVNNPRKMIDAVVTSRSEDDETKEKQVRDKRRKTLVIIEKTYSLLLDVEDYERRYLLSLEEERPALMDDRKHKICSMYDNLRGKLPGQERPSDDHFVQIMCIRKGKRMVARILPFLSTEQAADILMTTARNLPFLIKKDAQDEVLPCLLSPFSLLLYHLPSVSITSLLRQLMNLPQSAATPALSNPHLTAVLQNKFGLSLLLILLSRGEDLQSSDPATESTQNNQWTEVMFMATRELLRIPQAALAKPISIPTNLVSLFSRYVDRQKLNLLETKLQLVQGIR

“HA-tagged XRN1 (from UniProt Q8IZH2 1-1706) (enzyme)”: the binding result in experiment [1] was “binds”; in experiment [2] it was “no binding”; in experiment [3], “no binding”; in experiment [4] it was “binds”.

Values taken from paper PMC6753473.
